The record followed here is patent US20210238308A1 (Chugai, published 2021).

For the experiment, the target named is T1, human TRIM21 PRYSPRY domain with N-terminal 6xHis tag (human).
T1 construct: Expressed from pET28a in E. coli; also called hTRIM21
T1 chain: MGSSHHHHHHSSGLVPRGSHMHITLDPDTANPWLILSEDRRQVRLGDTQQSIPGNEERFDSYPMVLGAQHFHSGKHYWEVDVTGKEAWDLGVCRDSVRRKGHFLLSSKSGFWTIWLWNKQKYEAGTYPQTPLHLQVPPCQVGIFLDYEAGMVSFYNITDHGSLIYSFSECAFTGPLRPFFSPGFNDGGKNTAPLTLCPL
In words: SPR, Ab captured on Protein L, hTRIM21 12.5-200 nM.

B1: 3D8VH-G1m/hT4VL-KT0.Avi I253F.N315Q (antibody, human IgG1, kappa)
heavy: EVQLVESGGGLVQPGGSLRLSCAASGYTFTSYVMHWVRQAPGKGLEWVSAINPYNDGNYYADSVKGRFTISRDNSRKTLYLQMNSLRAEDTAVYYCARGAYKRGYAMDYWGQGTTVTVSSASTKGPSVFPLAPSSKSTSGGTAALGCLVKDYFPEPVTVSWNSGALTSGVHTFPAVLQSSGLYSLSSVVTVPSSSLGTQTYICNVNHKPSNTKVDKKV[human IgG1 Fc with I253F N315Q (EU numbers) omitted here]
light: [about 200 residues omitted here]GGGGSGLNDIFEAQKIEWHE
Regarding B1, the affinity, expressed as Kd, was 1.03 nM; the koff came out at 0.00224 s⁻¹; the kon came out at 2.17e+06 M⁻¹ s⁻¹.

B2: 3D8VH-G1m/hT4VL-KT0.Avi D312H.L432P (antibody, human IgG1, kappa)
heavy: EVQLVESGGGLVQPGGSLRLSCAASGYTFTSYVMHWVRQAPGKGLEWVSAINPYNDGNYYADSVKGRFTISRDNSRKTLYLQMNSLRAEDTAVYYCARGAYKRGYAMDYWGQGTTVTVSSASTKGPSVFPLAPSSKSTSGGTAALGCLVKDYFPEPVTVSWNSGALTSGVHTFPAVLQSSGLYSLSSVVTVPSSSLGTQTYICNVNHKPSNTKVDKKV[human IgG1 Fc with D312H L432P (EU numbers) omitted here]
light: [about 200 residues omitted here]GGGGSGLNDIFEAQKIEWHE
In the case of B2, the Kd amounted to 5.37 nM, the koff was 0.00982 s⁻¹ and the kon turned out to be 1.83e+06 M⁻¹ s⁻¹.

B3: 3D8VH-G1m/hT4VL-KT0.Avi I253F.M428F (antibody, human IgG1, kappa)
heavy: EVQLVESGGGLVQPGGSLRLSCAASGYTFTSYVMHWVRQAPGKGLEWVSAINPYNDGNYYADSVKGRFTISRDNSRKTLYLQMNSLRAEDTAVYYCARGAYKRGYAMDYWGQGTTVTVSSASTKGPSVFPLAPSSKSTSGGTAALGCLVKDYFPEPVTVSWNSGALTSGVHTFPAVLQSSGLYSLSSVVTVPSSSLGTQTYICNVNHKPSNTKVDKKV[human IgG1 Fc with I253F M428F (EU numbers) omitted here]
light: [about 200 residues omitted here]GGGGSGLNDIFEAQKIEWHE
The molecule B3 registered a Kd of 0.553 nM, a koff of 0.00117 s⁻¹ and a kon of 2.11e+06 M⁻¹ s⁻¹.

B4: 3D8VH-G1m/hT4VL-KT0.Avi I253L.L432P (antibody, human IgG1, kappa)
heavy: EVQLVESGGGLVQPGGSLRLSCAASGYTFTSYVMHWVRQAPGKGLEWVSAINPYNDGNYYADSVKGRFTISRDNSRKTLYLQMNSLRAEDTAVYYCARGAYKRGYAMDYWGQGTTVTVSSASTKGPSVFPLAPSSKSTSGGTAALGCLVKDYFPEPVTVSWNSGALTSGVHTFPAVLQSSGLYSLSSVVTVPSSSLGTQTYICNVNHKPSNTKVDKKV[human IgG1 Fc with I253L L432P (EU numbers) omitted here]
light: [about 200 residues omitted here]GGGGSGLNDIFEAQKIEWHE
Take B4: the Kd worked out at 1.07 nM, the koff was determined as 0.00138 s⁻¹ and the kon was found to be 1.29e+06 M⁻¹ s⁻¹.

B5: 3D8VH-G1m/hT4VL-KT0.Avi I253F.Q438E (antibody, human IgG1, kappa)
heavy: EVQLVESGGGLVQPGGSLRLSCAASGYTFTSYVMHWVRQAPGKGLEWVSAINPYNDGNYYADSVKGRFTISRDNSRKTLYLQMNSLRAEDTAVYYCARGAYKRGYAMDYWGQGTTVTVSSASTKGPSVFPLAPSSKSTSGGTAALGCLVKDYFPEPVTVSWNSGALTSGVHTFPAVLQSSGLYSLSSVVTVPSSSLGTQTYICNVNHKPSNTKVDKKV[human IgG1 Fc with I253F Q438E (EU numbers) omitted here]
light: [about 200 residues omitted here]GGGGSGLNDIFEAQKIEWHE
In turn, B5 showed a Kd of 0.682 nM, a koff of 0.00197 s⁻¹ and a kon of 2.9e+06 M⁻¹ s⁻¹.

B6: 3D8VH-G1m/hT4VL-KT0.Avi D312H.Q438E (antibody, human IgG1, kappa)
heavy: EVQLVESGGGLVQPGGSLRLSCAASGYTFTSYVMHWVRQAPGKGLEWVSAINPYNDGNYYADSVKGRFTISRDNSRKTLYLQMNSLRAEDTAVYYCARGAYKRGYAMDYWGQGTTVTVSSASTKGPSVFPLAPSSKSTSGGTAALGCLVKDYFPEPVTVSWNSGALTSGVHTFPAVLQSSGLYSLSSVVTVPSSSLGTQTYICNVNHKPSNTKVDKKV[human IgG1 Fc with D312H Q438E (EU numbers) omitted here]
light: [about 200 residues omitted here]GGGGSGLNDIFEAQKIEWHE
Molecule B6 gave a Kd of 3.55 nM, a koff of 0.00741 s⁻¹ and a kon of 2.09e+06 M⁻¹ s⁻¹.

B7: 3D8VH-G1m/hT4VL-KT0.Avi D312H.M428F (antibody, human IgG1, kappa)
heavy: EVQLVESGGGLVQPGGSLRLSCAASGYTFTSYVMHWVRQAPGKGLEWVSAINPYNDGNYYADSVKGRFTISRDNSRKTLYLQMNSLRAEDTAVYYCARGAYKRGYAMDYWGQGTTVTVSSASTKGPSVFPLAPSSKSTSGGTAALGCLVKDYFPEPVTVSWNSGALTSGVHTFPAVLQSSGLYSLSSVVTVPSSSLGTQTYICNVNHKPSNTKVDKKV[human IgG1 Fc with D312H M428F (EU numbers) omitted here]
light: [about 200 residues omitted here]GGGGSGLNDIFEAQKIEWHE
In the case of B7, the Kd was 3.71 nM, the koff is 0.00747 s⁻¹ and the kon came out at 2.01e+06 M⁻¹ s⁻¹.

B8: 3D8VH-G1m/hT4VL-KT0.Avi I253F.T437D (antibody, human IgG1, kappa)
heavy: EVQLVESGGGLVQPGGSLRLSCAASGYTFTSYVMHWVRQAPGKGLEWVSAINPYNDGNYYADSVKGRFTISRDNSRKTLYLQMNSLRAEDTAVYYCARGAYKRGYAMDYWGQGTTVTVSSASTKGPSVFPLAPSSKSTSGGTAALGCLVKDYFPEPVTVSWNSGALTSGVHTFPAVLQSSGLYSLSSVVTVPSSSLGTQTYICNVNHKPSNTKVDKKV[human IgG1 Fc with I253F T437D (EU numbers) omitted here]
light: [about 200 residues omitted here]GGGGSGLNDIFEAQKIEWHE
Regarding B8, the Kd worked out at 0.844 nM, the dissociation rate constant (koff) amounted to 0.00192 s⁻¹ and the kon came to 2.28e+06 M⁻¹ s⁻¹.

B9: 3D8VH-G1m/hT4VL-KT0.Avi D312H.Y436T (antibody, human IgG1, kappa)
heavy: EVQLVESGGGLVQPGGSLRLSCAASGYTFTSYVMHWVRQAPGKGLEWVSAINPYNDGNYYADSVKGRFTISRDNSRKTLYLQMNSLRAEDTAVYYCARGAYKRGYAMDYWGQGTTVTVSSASTKGPSVFPLAPSSKSTSGGTAALGCLVKDYFPEPVTVSWNSGALTSGVHTFPAVLQSSGLYSLSSVVTVPSSSLGTQTYICNVNHKPSNTKVDKKV[human IgG1 Fc with D312H Y436T (EU numbers) omitted here]
light: [about 200 residues omitted here]GGGGSGLNDIFEAQKIEWHE
Turning to B9, the affinity, expressed as Kd, was 6.2 nM; the koff was determined as 0.00698 s⁻¹; the kon amounted to 1.13e+06 M⁻¹ s⁻¹.

B10: 3D8VH-G1m/hT4VL-KT0.Avi I253F (antibody, human IgG1, kappa)
heavy: EVQLVESGGGLVQPGGSLRLSCAASGYTFTSYVMHWVRQAPGKGLEWVSAINPYNDGNYYADSVKGRFTISRDNSRKTLYLQMNSLRAEDTAVYYCARGAYKRGYAMDYWGQGTTVTVSSASTKGPSVFPLAPSSKSTSGGTAALGCLVKDYFPEPVTVSWNSGALTSGVHTFPAVLQSSGLYSLSSVVTVPSSSLGTQTYICNVNHKPSNTKVDKKV[human IgG1 Fc with I253F (EU numbers) omitted here]
light: [about 200 residues omitted here]GGGGSGLNDIFEAQKIEWHE
B10 had a Kd of 2.7 nM, a koff of 0.00765 s⁻¹ and a kon of 2.83e+06 M⁻¹ s⁻¹.

B11: 3D8VH-G1m/hT4VL-KT0.Avi I253F.D312H (antibody, human IgG1, kappa)
heavy: EVQLVESGGGLVQPGGSLRLSCAASGYTFTSYVMHWVRQAPGKGLEWVSAINPYNDGNYYADSVKGRFTISRDNSRKTLYLQMNSLRAEDTAVYYCARGAYKRGYAMDYWGQGTTVTVSSASTKGPSVFPLAPSSKSTSGGTAALGCLVKDYFPEPVTVSWNSGALTSGVHTFPAVLQSSGLYSLSSVVTVPSSSLGTQTYICNVNHKPSNTKVDKKV[human IgG1 Fc with I253F D312H (EU numbers) omitted here]
light: [about 200 residues omitted here]GGGGSGLNDIFEAQKIEWHE
Turning to B11, the Kd amounted to 1.17 nM, the koff amounted to 0.00242 s⁻¹ and the kon was determined as 2.06e+06 M⁻¹ s⁻¹.

B12: 3D8VH-G1m/hT4VL-KT0.Avi I253F.L432P (antibody, human IgG1, kappa)
heavy: EVQLVESGGGLVQPGGSLRLSCAASGYTFTSYVMHWVRQAPGKGLEWVSAINPYNDGNYYADSVKGRFTISRDNSRKTLYLQMNSLRAEDTAVYYCARGAYKRGYAMDYWGQGTTVTVSSASTKGPSVFPLAPSSKSTSGGTAALGCLVKDYFPEPVTVSWNSGALTSGVHTFPAVLQSSGLYSLSSVVTVPSSSLGTQTYICNVNHKPSNTKVDKKV[human IgG1 Fc with I253F L432P (EU numbers) omitted here]
light: [about 200 residues omitted here]GGGGSGLNDIFEAQKIEWHE
For B12, the affinity, expressed as Kd, was 1.87 nM; the koff worked out at 0.00386 s⁻¹; the kon came to 2.07e+06 M⁻¹ s⁻¹.

B13: 3D8VH-G1m/hT4VL-KT0.Avi D312H.T437D (antibody, human IgG1, kappa)
heavy: EVQLVESGGGLVQPGGSLRLSCAASGYTFTSYVMHWVRQAPGKGLEWVSAINPYNDGNYYADSVKGRFTISRDNSRKTLYLQMNSLRAEDTAVYYCARGAYKRGYAMDYWGQGTTVTVSSASTKGPSVFPLAPSSKSTSGGTAALGCLVKDYFPEPVTVSWNSGALTSGVHTFPAVLQSSGLYSLSSVVTVPSSSLGTQTYICNVNHKPSNTKVDKKV[human IgG1 Fc with D312H T437D (EU numbers) omitted here]
light: [about 200 residues omitted here]GGGGSGLNDIFEAQKIEWHE
B13: the Kd worked out at 4.12 nM, the koff turned out to be 0.00934 s⁻¹ and the kon worked out at 2.27e+06 M⁻¹ s⁻¹.
